Results taken from the supplement of paper PMC8728848.
Some of the results follow.

Legend:
Test in all cases: glycan array binding signal (z-score within array); higher = stronger binding
Conditions in all cases: glycan notation: IUPAC condensed, linker removed
GlcNAc(b1-3)GalNAc = molecular target: GlcNAc(b1-3)GalNAc
In short: (§1)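 The binding signal is a Z-score computed within each array. Data were drawn from 3228 arrays in the Consortium for Functional Glycomics database, restricted to those with a known protein sequence. Scores were averaged over arrays of the same protein sequence at different concentrations or buffers, and over linkers, and negative values can be taken as non-binding.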

[1] = molecular target: GlcNAc(b1-3)[GlcNAc(b1-4)][GlcNAc(b1-6)]GlcNAc
In short: as §1

[2] = molecular target: GlcNAc(b1-3)[GlcNAc(b1-6)]Gal(b1-4)GlcNAc
In short: as §1

[3] = molecular target: GlcNAc(b1-3)[GlcNAc(b1-6)]GlcNAc
In short: as §1

[4] = molecular target: GlcNAc(b1-4)Gal(b1-4)GlcNAc
In short: as §1

[5] = molecular target: GlcNAc(b1-4)GlcNAc(b1-4)GlcNAc
In short: as §1

[6] = molecular target: GlcNAc(b1-4)GlcNAc(b1-4)GlcNAc(b1-4)GlcNAc(b1-4)GlcNAc
In short: as §1

[7] = molecular target: GlcNAc(b1-4)GlcNAc(b1-4)GlcNAc(b1-4)GlcNAc(b1-4)GlcNAc(b1-4)GlcNAc
In short: as §1

[8] = molecular target: GlcNAc(b1-4)[GlcNAc(b1-6)]GalNAc
In short: as §1

[9] = molecular target: GlcNAc(b1-6)Gal(b1-4)GlcNAc
In short: as §1

GlcNAc(b1-6)GalNAc = molecular target: GlcNAc(b1-6)GalNAc
In short: as §1

Kdn(a2-3)Gal(b1-3)GlcNAc = molecular target: Kdn(a2-3)Gal(b1-3)GlcNAc
In short: as §1

Kdn(a2-3)Gal(b1-4)GlcNAc = molecular target: Kdn(a2-3)Gal(b1-4)GlcNAc
In short: as §1

[10] = molecular target: Man(a1-2)Man(a1-2)Man(a1-3)Man
In short: as §1

[11] = molecular target: Man(a1-2)Man(a1-2)Man(a1-3)[Man(a1-2)Man(a1-3)[Man(a1-2)Man(a1-6)]Man(a1-6)]Man(b1-4)GlcNAc(b1-4)GlcNAc
In short: as §1

[12] = molecular target: Man(a1-2)Man(a1-2)Man(a1-3)[Man(a1-2)Man(a1-6)[Man(a1-3)]Man(a1-6)]Man(b1-4)GlcNAc(b1-4)GlcNAc
In short: as §1

[13] = molecular target: Man(a1-2)Man(a1-2)Man(a1-6)[Man(a1-3)]Man
In short: as §1

Man(a1-2)Man(a1-3)Man = molecular target: Man(a1-2)Man(a1-3)Man
In short: as §1

[14] = molecular target: Man(a1-2)Man(a1-3)[Man(a1-2)Man(a1-6)]Man
In short: as §1

[15] = molecular target: Man(a1-2)Man(a1-3)[Man(a1-3)[Man(a1-6)]Man(a1-6)]Man(b1-4)GlcNAc(b1-4)GlcNAc
In short: as §1

[16] = molecular target: Man(a1-2)Man(a1-3)[Man(a1-6)]Man(a1-6)[Man(a1-2)Man(a1-3)]Man(b1-4)GlcNAc(b1-4)GlcNAc
In short: as §1

Man(a1-3)[Man(a1-6)]Man = molecular target: Man(a1-3)[Man(a1-6)]Man
In short: as §1

[17] = molecular target: Man(a1-3)[Man(a1-6)]Man(a1-6)[Man(a1-3)]Man(b1-4)GlcNAc(b1-4)GlcNAc
In short: as §1

[18] = molecular target: Man(a1-3)[Man(a1-6)]Man(b1-4)GlcNAc(b1-4)GlcNAc
In short: as §1

Man(b1-4)GlcNAc = molecular target: Man(b1-4)GlcNAc
In short: as §1

Neu5Ac(a2-3)Gal = molecular target: Neu5Ac(a2-3)Gal
In short: as §1

[19] = molecular target: Neu5Ac(a2-3)Gal(b1-3)GalNAc
In short: as §1

[20] = molecular target: Neu5Ac(a2-3)Gal(b1-3)GalNAc(b1-3)Gal(a1-4)Gal(b1-4)Glc
In short: as §1

[21] = molecular target: Neu5Ac(a2-3)Gal(b1-3)GalNAc(b1-4)[Neu5Ac(a2-3)]Gal(b1-4)Glc
In short: as §1

[22] = molecular target: Neu5Ac(a2-3)Gal(b1-3)GalNAc6S
In short: as §1

[23] = molecular target: Neu5Ac(a2-3)Gal(b1-3)GlcNAc
In short: as §1

[24] = molecular target: Neu5Ac(a2-3)Gal(b1-3)GlcNAc(b1-3)Gal(b1-4)GlcNAc
In short: as §1

[25] = molecular target: Neu5Ac(a2-3)Gal(b1-3)GlcNAc6S
In short: as §1

[26] = molecular target: Neu5Ac(a2-3)Gal(b1-3)[Fuc(a1-4)]GlcNAc
In short: as §1

[27] = molecular target: Neu5Ac(a2-3)Gal(b1-3)[Fuc(a1-4)]GlcNAc(b1-3)Gal(b1-4)[Fuc(a1-3)]GlcNAc
In short: as §1

[28] = molecular target: Neu5Ac(a2-3)Gal(b1-3)[Neu5Ac(a2-3)Gal(b1-4)]GlcNAc
In short: as §1

[29] = molecular target: Neu5Ac(a2-3)Gal(b1-3)[Neu5Ac(a2-6)]GalNAc
In short: as §1

Neu5Ac(a2-3)Gal(b1-4)Glc = molecular target: Neu5Ac(a2-3)Gal(b1-4)Glc
In short: as §1

B1: ASA (Allium sativum) (protein)
chain: KAHEKERMGRNTPSAKLMSIAAVAAILTILASTCMARNLLTNGEGLYAGQSLNVEPYHFIMQEDCNLVLYDHSTAVWATNTDIPGKKECRAVLQSDGNFVVYDADGRPLWASHSVRGNGNYVLVLQEDGNVVIYGSDIWSTGTYVKAARGPVVVAMNGTVDGGSLIRPVIVNKNHVPVIRKVGTLSRNILRNDEGLYAGQSLDVEPYHFIMHEDCNLVLYDHSTAVWASNTDIPGKKGCKAVLQSDGNFVVYDAEGRSLWASHSVRGNGNYVLVLQEDGNVVIYGSDIWSTDTYRKSARGPVIRKVGTLAGAA
With B1 as the binder, how does the “glycan array binding signal (z-score)” value (GlcNAc(b1-3)GalNAc) read?
Its value is -0.234.

And the “glycan array binding signal (z-score)” value [1]?
The value was -0.115.

And the “glycan array binding signal (z-score)” value [2]?
The value was -0.227.

What about the “glycan array binding signal (z-score)” value [3] of the same binder?
Its value is -0.175.

What about the “glycan array binding signal (z-score)” value [4] of the same binder?
Its value is -0.221.

What about the “glycan array binding signal (z-score)” value [5] of the same binder?
The value was -0.19.

What about the “glycan array binding signal (z-score)” value [6] of the same binder?
The value was -0.207.

What about the “glycan array binding signal (z-score)” value [7] of the same binder?
The value was -0.185.

And the “glycan array binding signal (z-score)” value [8]?
The value was -0.223.

And the “glycan array binding signal (z-score)” value [9]?
The value was -0.21.

What about the “glycan array binding signal (z-score)” value (GlcNAc(b1-6)GalNAc) of the same binder?
Its value is -0.215.

And the “glycan array binding signal (z-score)” value (Kdn(a2-3)Gal(b1-3)GlcNAc)?
The value was -0.223.

What about the “glycan array binding signal (z-score)” value (Kdn(a2-3)Gal(b1-4)GlcNAc) of the same binder?
The value was -0.22.

And the “glycan array binding signal (z-score)” value [10]?
Its value is 6.7.

And the “glycan array binding signal (z-score)” value [11]?
Its value is 1.51.

What about the “glycan array binding signal (z-score)” value [12] of the same binder?
The value was 2.52.

And the “glycan array binding signal (z-score)” value [13]?
Its value is 3.68.

And the “glycan array binding signal (z-score)” value (Man(a1-2)Man(a1-3)Man)?
Its value is 0.036.

What about the “glycan array binding signal (z-score)” value [14] of the same binder?
The value was 2.2.

What about the “glycan array binding signal (z-score)” value [15] of the same binder?
Its value is 6.08.

And the “glycan array binding signal (z-score)” value [16]?
Its value is 3.02.

What about the “glycan array binding signal (z-score)” value (Man(a1-3)[Man(a1-6)]Man) of the same binder?
Its value is 0.312.

What about the “glycan array binding signal (z-score)” value [17] of the same binder?
The value was 5.45.

And the “glycan array binding signal (z-score)” value [18]?
Its value is 6.64.

What about the “glycan array binding signal (z-score)” value (Man(b1-4)GlcNAc) of the same binder?
The value was -0.218.

And the “glycan array binding signal (z-score)” value (Neu5Ac(a2-3)Gal)?
Its value is -0.215.

What about the “glycan array binding signal (z-score)” value [19] of the same binder?
The value was -0.201.

What about the “glycan array binding signal (z-score)” value [20] of the same binder?
The value was -0.228.

And the “glycan array binding signal (z-score)” value [21]?
Its value is -0.11.

What about the “glycan array binding signal (z-score)” value [22] of the same binder?
The value was -0.226.

What about the “glycan array binding signal (z-score)” value [23] of the same binder?
Its value is -0.223.

And the “glycan array binding signal (z-score)” value [24]?
The value was -0.215.

And the “glycan array binding signal (z-score)” value [25]?
Its value is -0.222.

What about the “glycan array binding signal (z-score)” value [26] of the same binder?
Its value is -0.235.

What about the “glycan array binding signal (z-score)” value [27] of the same binder?
Its value is 0.083.

And the “glycan array binding signal (z-score)” value [28]?
Its value is -0.226.

What about the “glycan array binding signal (z-score)” value [29] of the same binder?
The value was -0.235.

What about the “glycan array binding signal (z-score)” value (Neu5Ac(a2-3)Gal(b1-4)Glc) of the same binder?
Its value is -0.221.
